The values that follow come from article PMC6919601, “Identification of Plasmodium dipeptidyl aminopeptidase allosteric inhibitors by high throughput screening” (PLoS ONE, 2019).

Structures are written as SMILES. Out of some 110,000 compounds screened, about 230 (0.21%) showed an effect of 50% or more. Some of the results follow.
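Also: 30 min substrate incubation versus DMSO and 10 µM JCP410 controls.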

Chain of DPAP1 (Q8IIJ9 whole entry, looked up): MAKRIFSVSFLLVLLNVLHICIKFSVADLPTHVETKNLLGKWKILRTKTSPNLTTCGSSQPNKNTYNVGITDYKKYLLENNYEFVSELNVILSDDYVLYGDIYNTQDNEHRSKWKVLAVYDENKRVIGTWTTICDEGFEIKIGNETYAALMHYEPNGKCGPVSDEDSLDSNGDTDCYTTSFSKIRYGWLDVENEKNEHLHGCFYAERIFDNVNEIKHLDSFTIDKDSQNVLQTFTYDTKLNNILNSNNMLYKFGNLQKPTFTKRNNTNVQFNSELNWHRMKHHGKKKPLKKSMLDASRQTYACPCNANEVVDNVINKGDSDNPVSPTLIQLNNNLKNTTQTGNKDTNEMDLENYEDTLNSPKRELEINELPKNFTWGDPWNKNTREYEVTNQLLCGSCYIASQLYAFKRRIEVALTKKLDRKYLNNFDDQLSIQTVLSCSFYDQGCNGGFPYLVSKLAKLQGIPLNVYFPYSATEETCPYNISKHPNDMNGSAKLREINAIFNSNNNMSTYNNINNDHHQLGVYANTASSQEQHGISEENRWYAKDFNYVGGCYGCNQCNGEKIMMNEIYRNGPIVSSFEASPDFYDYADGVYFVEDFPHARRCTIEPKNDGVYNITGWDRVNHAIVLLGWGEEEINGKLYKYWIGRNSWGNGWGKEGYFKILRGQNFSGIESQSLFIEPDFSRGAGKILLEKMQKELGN

The assay has as its target DPAP1 (Plasmodium falciparum, UniProt Q8IIJ9). Briefly: primary screen, percent inhibition; read by cleavage of a fluorogenic dipeptide substrate; higher = more effect of the substance. More on the design: species or system P. falciparum D10 trophozoite lysates; single well.
As to `COc1cc2c(cc1OC)CN(Cc1ccc(F)cc1F)CC2`, the “% Inhibition @ 10 uM” value was -6.47%.

Consider `CCCCN(CC)C(=O)c1cn(CC)c(=O)c2cc(OC)c(OC)cc12`, for which the “% Inhibition @ 10 uM” value is given as -0.228%. The result for `COc1ccccc1CNC(=O)CSCc1cnn(-c2ccccc2)c1-n1cccc1` reads -2.85%. The result for `O=C(Nc1ccccc1Oc1ccccc1)c1ccc(Br)o1` reads -0.0555%; that for `O=C(Cn1c(=O)c2cccn2c2cccnc21)NCCC1=CCCCC1`, -7.24%. `c1ccc(-c2ccc3c(c2)c2c4n3CCN=C4CCC2)cc1`: the “% Inhibition @ 10 uM” value is reported as -1.22%.

On to `CC(C)c1ccc(-n2nnc(-c3nc(-c4ccccc4F)no3)c2N)cc1`, for which the “% Inhibition @ 10 uM” value came to 0.331%. Under `Brc1ccc(-c2nc(NCc3ccccc3)cc(-c3ccccc3)n2)cc1` stands -1.48%; under `COc1ccc(CN2CCN(Cc3ccc(OC)c(OC)c3)CC2)cc1Br`, 0.408%; under `COc1ccc(Cc2nc(COc3ccc(Cl)c(C)c3)no2)cc1OC`, -2.71%. The result for `COc1ccc(-c2cc(C(F)F)n3ncc(C(=O)N4CCOCC4)c3n2)cc1` reads 3.69%; that for `C=CCOc1nc(N2CCCCC2)nc(N2CCCCC2)n1`, 3.66%; that for `CC(=O)Nc1cccc(NC(C)=O)n1`, 4.31%. Under `CCOC(=O)c1c(C)[nH]c(C)c1S(=O)(=O)NCC(=O)NCc1cc(C)ccc1C` stands -3.76%; under `CCCN1CCN(C(=O)CCc2c(C)nc3c(c2C)c(=O)n(C)c(=O)n3C)CC1`, 0.44%; under `CCOP(=O)(OCC)C(Nc1ccc(Br)cc1)c1ccc(Cl)cc1` (centres unmarked), 1.7%. As for `CCOC(=O)C(C)N1C(=O)S/C(=C\c2cc(Br)c(OC)c(OC)c2)C1=O` (centres unmarked), the “% Inhibition @ 10 uM” value is given as -4.75%. Under `Cc1oc(-c2ccccc2F)nc1CN1CCC(C(=O)NCc2cccnc2)CC1` stands -8.65%. Under `Cc1cccn2cc(CSc3nc4ccccc4[nH]3)nc12` stands -0.303%; under `Cc1nc(NCCc2ccc3c(c2)OCCO3)c2cc(-c3ccccc3)sc2n1`, 0.147%. The result for `CC(C)c1ccc(C2=CC(c3ccccc3OC(F)F)n3ncnc3N2)cc1` (centres unmarked) reads 0.219%; that for `CN(C)CC(O)Cn1c2ccc(Cl)cc2c2cc(Cl)ccc21` (centres unmarked), 10.4%. Take `Cc1ccc(C2C(C(=O)c3ccccc3)=C(O)C(=O)N2c2ncccn2)cc1` (centres unmarked): the “% Inhibition @ 10 uM” value was -9.31%. On to `COc1ccccc1C(=O)Nc1ccc2oc(-c3ccc(F)cc3)nc2c1`, for which the “% Inhibition @ 10 uM” value is listed as -5.4%. The result for `COc1ccc(CNc2nc3c(c(C(F)(F)F)n2)CCCCC3)cc1` reads -3.27%. For the compound `COc1ccc(OC)c(CN2CCN(C(=O)c3ccc(OC)c(OC)c3)CC2)c1`, the “% Inhibition @ 10 uM” value was -1.98%. The result for `CCc1ccc(CNC(=O)C2CC(=O)N(CCc3ccccc3)C2)cc1` (centres unmarked) reads -1.79%. Under `CC(NC(=O)C1(c2ccccc2)CCCC1)C1COc2ccccc2O1` (centres unmarked) stands 0.685%; under `CC1C(c2ccccc2)NC(c2ccccc2)C(C)C1(O)C#Cc1ccccc1` (centres unmarked), -1.32%.

Turning to `O=C(O)COc1ccc2ccccc2c1Br`, the “% Inhibition @ 10 uM” value is listed as -3.62%. Under `O=C(c1ccc(CSCc2ccccc2F)o1)N1CCN(c2ccc(N3CCOCC3)nn2)CC1` stands -3.45%; under `COc1cc(O)ccc1C1Nc2ccc(C)cc2-c2cc(C)nn21` (centres unmarked), -2.11%. `COc1ccc(CCNC(=O)c2nnc(-c3cccnc3)o2)cc1OC`: the “% Inhibition @ 10 uM” value is listed as -4.47%. Under `COc1ccc(C2=N/C(=C\C(Cl)=C\c3ccccc3)C(=O)O2)cc1` stands 4.54%; under `CCCC[C@H](NC(=O)[C@H](C[C@H](C)c1ccccc1OC)NC(=O)c1cc2c(C(F)(F)F)nn(C)c2s1)C(=O)CC(=O)N1CCCC1`, 0.079%; under `CCCCOc1ccc(NC(=O)c2sc3nc(N)c(C#N)cc3c2N)cc1`, -6.92%. For the compound `Cc1cc(C)nc(Nc2n[nH]c(-c3ccccc3Cl)n2)n1`, the “% Inhibition @ 10 uM” value was determined as 3.56%. The result for `OCC(O)C1OC2OC3(CCCCC3)OC2C1O` (centres unmarked) reads -4.61%. The result for `c1ccc(CC2CCN(c3nn4nnnc4c4ccccc34)CC2)cc1` reads -8.89%; that for `CCN1CCN(C(=O)Cn2ncc3c2-c2cc(C)ccc2OC3)CC1`, -8.2%. The result for `COc1ccc(OCc2nc(C#N)c(NCC(C)C)o2)cc1` reads -1.18%; that for `CCCCCn1c(SC(C)CC)nc2c1c(=O)[nH]c(=O)n2C` (centres unmarked), 5.89%. For `Cc1cc(OCC(O)CN2CCN(c3ccc(F)cc3)CC2)ccc1C(C)C` (centres unmarked), the “% Inhibition @ 10 uM” value was 2.22%. Take `CCOc1cc(/C=N\n2nnnc2N)ccc1O`: the “% Inhibition @ 10 uM” value worked out at 13.2%. Under `CCOc1ccccc1NC(=O)c1ccc(C(C)(C)C)cc1` stands 0.475%; under `COCCCNC(=O)C1CCCN(S(=O)(=O)N2CCOCC2)C1` (centres unmarked), -7.53%. Under `CC(C)(C)OC(=O)N1CCN(C2(c3ccccc3)C(=O)c3ccccc3C2=O)CC1` stands -4.16%; under `Cc1ccc(C(=O)c2ccc(F)c(F)c2)cc1`, -8.48%. Under `CNc1c(NS(=O)(=O)c2ccc(OC)cc2)c(=O)oc2ccccc12` stands -0.0709%. As to `NC1CCC(C(=O)O)(c2ccccc2)C1` (centres unmarked), the “% Inhibition @ 10 uM” value was determined as 1.72%.

On to `COc1cccc(NC(=O)COc2ccc(S(=O)(=O)NC(C)C)cc2)c1`, for which the “% Inhibition @ 10 uM” value is listed as 0.889%.

As for `Cc1cc(C)cc(NC(=O)C(C)SCc2ccccc2)c1` (centres unmarked), the “% Inhibition @ 10 uM” value came to 5.66%. Under `O=C(CCc1nnc2n(Cc3ccccc3)c(=O)c3ccccc3n12)N1CCN(C2CCCCC2)CC1` stands 4.16%; under `Cc1ccccc1C(=O)Nc1ccc(S(=O)(=O)Nc2nccs2)cc1`, -3.39%.

As to `CCCn1c2ccccc2c2cnn(CC(=O)N3CCC4(CC3)OCCO4)c(=O)c21`, the “% Inhibition @ 10 uM” value came out at 0.00353%. The result for `Cc1cccc(N2C(=O)C(Cl)=C(Nc3ccc(S(N)(=O)=O)cc3)C2=O)c1C` reads 0.458%. For the compound `CCOc1ccc(-c2c(C#N)c(N)nc3c2CCCC3)cc1`, the “% Inhibition @ 10 uM” value is recorded as 3.44%. Under `CC1CCN(CC(O)COC2CC(C)CC(C)(C)C2)CC1` (centres unmarked) stands -7.76%; under `O=C(Nc1ccc(NC(=O)c2ccccc2Cl)cc1)c1ccco1`, -1.28%. The result for `O=C(NCc1ccc(Cl)cc1)N1CCOCC1` reads -2.35%.

Turning to `Fc1ccccc1N1N=C(/C=C/c2ccc(Br)cc2)CC1c1ccc(Br)cc1` (centres unmarked), the “% Inhibition @ 10 uM” value was 2.62%.

In the case of `CCC(C)C(NC(=O)C1CCC(C)CC1)C(=O)NC(C)c1ccccc1` (centres unmarked), the “% Inhibition @ 10 uM” value is reported as -4.06%. Regarding `COc1ccc(CC(=O)Nc2ccccc2C)cc1`, the “% Inhibition @ 10 uM” value was 5.56%. The result for `COc1ccccc1CNC(=O)CCSc1ccc(Cl)cc1` reads -17.9%; that for `Cc1nc(N2C(=O)C(O)=C(C(=O)c3ccccc3)C2c2ccccc2F)sc1C` (centres unmarked), 2.98%; that for `COc1ccc(C2Nc3ccccc3N=C3CC(c4cccs4)CC(O)=C32)c(OC)c1` (centres unmarked), -2.77%.

Take `CCN(CCNC(=O)C1CCN(c2ncnc3c2nc2n3CCCCC2)CC1)Cc1ccccc1`: the “% Inhibition @ 10 uM” value is given as -3.22%. In the case of `COc1ccc(Cl)cc1NC(=O)CC1S/C(=N\C(C)C)N(C(C)C)C1=O` (centres unmarked), the “% Inhibition @ 10 uM” value worked out at 2.22%. Under `CC1(C(=O)NC2CCCCCC2)Cc2ccccc2C(=O)N1C1CCCCC1` (centres unmarked) stands -3.34%; under `Cc1ccc(Cn2nnc3sc(-c4ccccc4)cc3c2=O)cc1`, 46.2%; under `O=C(NCc1ccccc1)c1ccc(Cl)c([N+](=O)[O-])c1`, 0.467%.
